44 sequences from the supplement of paper PMC11417369 can be followed below.

The list shows a part of the results.

This test concerns PfAP2-HC AP2 domain (GST-tagged). As to the kind of experiment: gcPBM binding intensity (ln(normalized median fluorescence intensity)); higher = stronger DNA binding. The essentials: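 Alexa488 anti-GST antibody, scanned at 488 nm, detected GST-tagged P. falciparum DNA-binding domains that had been expressed in E. coli and incubated for 1 h on an Agilent 4 × 180k array. The array carried primer-extended double-stranded 36-bp intergenic genomic probes and negative controls. Binding intensity is the highest Masliner-normalised natural-log median intensity across replicate spots of either orientation of each probe.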
Turning to “TGGTATATTATTTTTTGTACACATAAATGAAACATT [XGTACX_site5345]”, the “gcPBM binding intensity (ln)” value amounted to 9.62.

On to “GTACCTATTTCATACACACACACACGCAAACAAACA [CACACA_site6590]”, for which the “gcPBM binding intensity (ln)” value came to 11.1.

On to “ATATAGATTCGACACACACACAAAAAAAAAAAAAAA [CACACA_site7677]”, for which the “gcPBM binding intensity (ln)” value worked out at 10.1.

Turning to “CGTATATCACCAACTAGTACATATAAATAAATAAAT [XGTACX_site8837]”, the “gcPBM binding intensity (ln)” value is 9.67.

Take “ATATATATATATATATGTACATATTATTATTTTGAT [XGTACX_site4752]”: the “gcPBM binding intensity (ln)” value was 9.68.

On to “ATATATATAATAAACACACACATATACATAGATGTA [CACACA_site5841]”, for which the “gcPBM binding intensity (ln)” value stood at 10.2.

As to “TGGTCTTTTAAACAAAAATATAAATTTTTAAATATG [CACACA_negctrl_site392]”, the “gcPBM binding intensity (ln)” value came out at 9.24.

As to “AAGAAAATTGTCTGAAGTACAAAACATTAATAATAT [XGTACX_site4864]”, the “gcPBM binding intensity (ln)” value came to 9.73.

Take “AATTTAATATAATGCACACATAAAAAAAAAAAATTC [CACACA_site1504]”: the “gcPBM binding intensity (ln)” value was determined as 9.94.

Take “AGCTTGTGGATGCAGGTGCTACATTTGTTCTATAAT [GTGCAC_site9645]”: the “gcPBM binding intensity (ln)” value is 9.77.

Take “TATAAAAATATTTCTACACACATTAAAATATATATA [CACACA_site4770]”: the “gcPBM binding intensity (ln)” value was 9.62.

Turning to “AATGAAAGGATGCTGTGTACATATATATATATATAT [XGTACX_site7901]”, the “gcPBM binding intensity (ln)” value worked out at 10.3.

For the sequence “CATTTGCCCAGGCACACACACATAAAAAGAAAAATA [CACACA_site356]”, the “gcPBM binding intensity (ln)” value was found to be 10.2.

Take “TTTTTTTTGTGTTCAAGTACAAAATTTTAAAGGTCA [XGTACX_site4011]”: the “gcPBM binding intensity (ln)” value came to 9.26.

In the case of “GGTTATTTCACAGAATGTACTTATTATATATAAAAT [XGTACX_site8886]”, the “gcPBM binding intensity (ln)” value amounted to 9.59.

As to “TATATATATATATAAGCACACAAACAAAAAAAATTA [CACACA_site9293]”, the “gcPBM binding intensity (ln)” value came to 9.81.

Consider “AAGATAAATTATTATAAATCAATTGTGCCAACAATA [CACACA_negctrl_site144]”, for which the “gcPBM binding intensity (ln)” value was determined as 9.53.

In the case of “AATATAAATAAAAACACACACACACCGATATATATA [CACACA_site5283]”, the “gcPBM binding intensity (ln)” value amounted to 10.8.

For “AAGATTAGGTTAATTAGTACTTATTATATTGTAATG [XGTACX_site3653]”, the “gcPBM binding intensity (ln)” value came out at 9.36.

Regarding “GATCCATTATTGATCCGTACTTATTCATGTTATATA [XGTACX_site5946]”, the “gcPBM binding intensity (ln)” value stood at 9.77.

Take “TGTTATAAGATTTATGTACACACATATACACCCCTC [CACACA_site8141]”: the “gcPBM binding intensity (ln)” value was determined as 10.1.

Take “TATATATGTATATATACACACAACGGTTATAAATAT [CACACA_site1128]”: the “gcPBM binding intensity (ln)” value was found to be 9.86.

On to TATATATATATATGTATGCACTTTAATTTTATAAGG, for which the “gcPBM binding intensity (ln)” value was 9.43.

“AATGTGTAGACACGCACACACAAAAAAATATATATA [CACACA_site5595]”: the “gcPBM binding intensity (ln)” value amounted to 10.7.

“AATGTAGAAATGGGTGCACACACATATATAATATAT [CACACA_site8799]”: the “gcPBM binding intensity (ln)” value came out at 10.1.

Regarding “GTTTTATTTTCAATGTGTACTTATTATTTGATATAC [XGTACX_site6402]”, the “gcPBM binding intensity (ln)” value came to 9.96.

For the sequence “TAATTTTTTTTAATAACACACATATAAATATAAATA [CACACA_site6521]”, the “gcPBM binding intensity (ln)” value came to 9.31.

With “CATTTGCACCCGCACACACACATAAAAAGAAAAATA [CACACA_site4350]”, the “gcPBM binding intensity (ln)” value was 11.1.

With “GAAACAATTTGATATTGTACATAAATAAATAAAAAC [XGTACX_site8869]”, the “gcPBM binding intensity (ln)” value is 9.75.

Turning to CATATTATTATTTTGGTGCATACTTATATATATTTT, the “gcPBM binding intensity (ln)” value came to 9.85.

In the case of “GTACCTATTTCATACACACACACACCCAAACAAACA [CACACA_site976]”, the “gcPBM binding intensity (ln)” value is 10.5.

On to “AACATTGATAAATATAAACACACGAAAACAGACATA [CACACA_site490]”, for which the “gcPBM binding intensity (ln)” value is 10.3.

As to “CTTGTACCTAGAAATACACACAATTCTATAACTTAT [CACACA_site7355]”, the “gcPBM binding intensity (ln)” value was 9.79.

Regarding “AATTTACATATATATTGTACATTTATGTATATATAT [XGTACX_site4186]”, the “gcPBM binding intensity (ln)” value was determined as 9.87.

On to “TAATATTTTTTGTGTACACATATATATATATATATA [CACACA_site5504]”, for which the “gcPBM binding intensity (ln)” value is 9.77.

In the case of “TACTTATATTGAAATGGTACAGATAAAAAAAAAAAA [XGTACX_site1407]”, the “gcPBM binding intensity (ln)” value amounted to 9.51.

On to “TTTTGTAATGTGAATATTTGTATATTATTTGTATAT [CACACA_negctrl_site1677]”, for which the “gcPBM binding intensity (ln)” value was determined as 9.68.

Consider “ACATTCTATCTAAGTACACACATTAATTTTTTTTTT [CACACA_site4106]”, for which the “gcPBM binding intensity (ln)” value worked out at 9.9.

Consider “ATCTTATATCGTAGAGATTTTTTTTTTTTTTCATTT [XGTACX_negctrl_site140]”, for which the “gcPBM binding intensity (ln)” value came out at 9.53.

Take “AATTTCTTCTTAGGGTGTACAATTTGACATAAGGAA [XGTACX_site1773]”: the “gcPBM binding intensity (ln)” value amounted to 9.39.

Consider “GTAATATATATTAAGTAATAGTTTATCTTAGGAAAA [TGCATGCA_negctrl_site302]”, for which the “gcPBM binding intensity (ln)” value was found to be 9.73.

Take “AATTAGATGGATAAATGTACATATGTGAATATATTT [XGTACX_site85]”: the “gcPBM binding intensity (ln)” value is 9.85.

For “GTGCCCTTTTTAATAACATGCAAATAACATATTTAT [TGCATGCA_site709]”, the “gcPBM binding intensity (ln)” value worked out at 9.82.

Consider “AAAAAAAAAAAAAACACACAAACATCAAATTATTAT [CACACA_site1838]”, for which the “gcPBM binding intensity (ln)” value was found to be 10.4.
